“And” between values parts separate entries of the source, which are not always exact repeats. Equal values may be shown once. The campaign covered roughly 48,000 compounds. About 1,200 (2.5%) were called active. Another 2% or so got no clear call; they are omitted.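 Rule for the calls: active = activation of at least 60% and not above a set upper limit (about 1 call in 100 departs from these limits); inconclusive = activation of 40% to 60%, or above that upper limit; inactive = activation under 40%.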 The list shows a part of the results.
target: Probable G-protein coupled receptor 32 (Homo sapiens) (UniProt O75388); assay: qHTS for Agonists of Human Resolvin D1 Receptor DRV1; conditions: CHO-K1 GPR32 beta-arrestin PathHunter luminescence, 90 min; at 76.9 µM; hits give high values; zero percent set by DMSO-only wells; note: 0% is about no effect
UniProt O75388, sequence (O75388 whole entry, looked up): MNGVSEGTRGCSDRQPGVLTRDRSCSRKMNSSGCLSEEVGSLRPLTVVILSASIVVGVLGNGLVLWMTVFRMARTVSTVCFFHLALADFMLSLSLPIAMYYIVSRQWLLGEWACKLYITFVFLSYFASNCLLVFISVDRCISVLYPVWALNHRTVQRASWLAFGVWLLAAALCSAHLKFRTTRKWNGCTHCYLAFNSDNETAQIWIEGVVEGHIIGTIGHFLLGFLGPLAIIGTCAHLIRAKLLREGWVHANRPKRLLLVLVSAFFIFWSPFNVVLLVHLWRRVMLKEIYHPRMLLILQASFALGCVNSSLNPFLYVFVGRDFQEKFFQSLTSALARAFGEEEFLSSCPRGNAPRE
Procedure, shortened: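 CHO-K1 cells stably expressing ProLink-tagged GPR32 and Enzyme Activator-tagged beta-arrestin were seeded at 2,500 cells/well overnight, exposed to compounds for 90 min at 37 °C, then read by beta-Gal complementation chemiluminescence after 1 h detection reagent.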

activation, active:
Cc1ccccc1C(=O)OCc1cc(=O)n2c(C)csc2n1 75.1%

activation, inactive:
CCc1nn(CC(=O)NCc2ccc(OC)c(OC)c2)c(=O)c2cc3sc(C)cc3n12 -3.62%
CCOc1ccc(C(=O)Nc2ccccc2OCc2cc(=O)n3ccccc3n2)cc1 -6.76%
Cc1cc(C(=O)Nc2cccc(F)c2)c2c(C)nn(-c3cccc(Cl)c3C)c2n1 -3.28%
COc1ccccc1OCCCCn1c(-c2ccc(Cl)cc2)nc2ccccc2c1=O -11.4%
CN(C)c1ccc(C(=O)Nc2cccc(-c3nc4cccnc4s3)c2)cc1 -15.8%
COc1ccc(CCNC(=O)c2nc(SCc3ccc(C)cc3)ncc2Cl)cc1OC -21.5%
CCOC(=O)N1CCC(=C2c3ccc(Cl)cc3CCc3cccnc32)CC1 6.05% and -26.6%
CCOC(=O)Cn1c(=O)n(-c2ccccc2OC)c2nc(-c3ccccc3F)nc(C(N)=O)c21 -43%
O=C(Nc1ccc(C(F)(F)F)cc1)C1CCN(c2cnccn2)CC1 -35.1%
Cc1ccc(CCNC(=O)c2cc(C)nc3c2c(C)nn3-c2ccc(C)cc2)cc1 -6.04%
COc1cccc2cc(-c3csc(-c4ccc(Cl)cc4)n3)c(=O)oc12 3.79%
COc1cccc(Cn2c(SCC(=O)N(C)c3ccccc3)nc3ccccc32)c1 9.84%
COC(=O)c1ccc(Cn2c(SCc3ccccc3)nc3ccncc32)cc1 -14.6%
Cc1ccc(-c2nc(CS(=O)(=O)CC(=O)NCc3ccc(Cl)cc3)c(C)o2)cc1 -1.77%
CCc1ccc(-n2c(SCc3ccccc3C)nc3[nH]ncc3c2=O)cc1 -33.1%
CCc1c(C)c2ccc(O)c(CN3CCN(c4ccc(OC)cc4)CC3)c2oc1=O -7.92%
Cc1ccccc1CNC(=O)c1ccc(CSc2nc3cccnc3n2Cc2ccccc2)cc1 -1.73%
CCOc1ccccc1NC(=O)Cn1c(=O)n(-c2ccc(F)cc2)c(=O)c2c3c(sc21)CN(C(C)=O)CC3 -4.92%
Cc1ccc(CCNC(=O)c2ccc(CNS(=O)(=O)c3ccccc3)cc2)cc1 45.2%
O=C(CN1CCSc2ccccc21)N1CCCCC1 -32.6%
CCc1ccc(-c2nn(CC(=O)NCc3ccccc3)c3c2cnc2ccc(C)cc23)cc1 -8.44%
CC(C)c1ccc(NC(=O)CCS(=O)(=O)c2cccc3nonc23)cc1 -3.03%
CCCN(C(=O)COc1cc(=O)n(CC)c2ccccc12)c1ccc(C(C)C)cc1 -5.94%
CCc1ccc(-n2nc(C)c3c(C(=O)Nc4cc(C)c(Cl)cc4OC)cc(C)nc32)cc1 11.7%
Cc1ccc(NC(=O)Cn2c(=O)n(CCc3ccccc3)c(=O)c3c4c(sc32)CCCC4)c(C)c1 -8.76%
COc1cc(/C=C(\C#N)C(=O)Nc2ccc(C)cc2)ccc1OCc1cc(=O)n2nc(C)sc2n1 -3.43%
CCc1cccc(NS(=O)(=O)c2c(C)nc3sc(CC)nn3c2=O)c1 19.5%
COc1ccc(N2CC(NC(=O)c3cc4ccccc4o3)CC2=O)cc1OC (centres undefined) 46.8%
COC(=O)c1ccc(NC(=O)c2cc(=O)c3ccc(C)cc3o2)cc1 -3.82%
Cc1ccc(N2CC(NC(=O)c3ccc(S(=O)(=O)N4CCCCC4)cc3)CC2=O)cc1 (centres undefined) -7.57%
CCOC(=O)c1cc(NC(=O)c2ccc(C)cc2)c(=O)n2c1oc1ccc(Cl)cc12 -5.09%
O=c1oc2ccc(Br)cc2cc1-c1csc(-c2ccccc2)n1 -3.76%
CN(C(=O)C1=CC(c2ccc3c(c2)OCO3)=NS(=O)(=O)N1C)c1ccccc1 -12.4%
O=C(CSc1nc2c(c(=O)[nH]1)CN(Cc1ccc3c(c1)OCO3)CC2)Nc1cccc(Cl)c1 4.91%
CCCC(=O)Nc1nnc2n1CCS2 -9.2%
Cc1nc2c(c(C)nn2-c2ccccc2)c(C)c1CCC(=O)NCCc1ccccc1 -6.52%
Cn1nnc2c(NCc3ccccc3Cl)ncnc21 -10.8%
CCOc1ccc(Oc2nc(NC)nc(N3CCOCC3)n2)nn1 -4.89%
CCOC(=O)c1noc2ncnc(N3CCC(C)CC3)c12 0.499%
COc1ccc(CC(=O)NCc2nc3cccnc3n2Cc2ccc(C)cc2)cc1OC -8.17%
Cc1cccc(Cn2cc3c(=O)n(CC(=O)Nc4ccc(C)c(F)c4)nc-3c3cc(F)ccc32)c1 11.4%
CCN(CC)C(=O)c1sc2c(c1C)c(=O)n(Cc1ccccc1)c(=O)n2Cc1ccc(Cl)cc1 -10.6%
O=C(CCS(=O)(=O)c1nc(-c2ccc3c(c2)OCO3)cc(C(F)(F)F)n1)Nc1ccccc1F -37.4%
COc1ccc(Nc2nc3ccccc3c3nnc(C)n23)cc1Cl 1.61%
CCN(C(=O)CCn1cnc2onc(-c3ccc(F)cc3)c2c1=O)c1ccc(OC)cc1 2.74%
CCc1cccc(-n2nnc(-c3nc(-c4ccccc4Cl)no3)c2N)c1 11.2%
Cc1cccc(N2CCN(C(=O)c3cnn(-c4cccc(Cl)c4C)c3C3CCNCC3)CC2)c1C -31.4%
CN1Cc2cc(C(=O)N3CCC(C4CCNCC4)CC3)ccc2NC(CC(=O)O)C1=O (centres undefined) -7.31%
Cc1ccc(NC(=O)CSc2cn(CC(=O)N3CCCCCC3)c3ccccc23)cc1 -13.5%
CCCCCCCCCCCCCCCCCCOCC(O)CO (centres undefined) 10.6%
Cn1nnc2c(NCCc3ccccc3)ncnc21 -6.27%
Cc1cc(C)c(NC(=O)Cn2c(=O)n(Cc3ccco3)c(=O)c3ccc(C(=O)NC4CCCC4)cc32)c(C)c1 -6.12%
O=C(NCC(c1cccnc1)N1CCc2ccccc2C1)C(=O)Nc1ccc(Cl)cc1 (centres undefined) -16.5%
Cc1ccc(-c2noc(CSc3nnc(Cc4ccccc4)n3-c3cccc(C)c3)n2)cc1 3.99%
Cc1ccc2c(c1)N(CC(=O)NCc1ccccc1Br)C(=O)c1cccnc1O2 -15.9%
CC(C)c1ccc(NC(=O)c2cccc3c2C(=O)N(C2CCCCC2)C3)cc1 -14.5%
CCCc1nc2ccccc2n2c(-c3ccc(C)cc3)c3c(=O)n(C)c(=O)n(C)c3c12 -39.4%
C[N+]1(C)CCC(OC(=O)C(O)(c2ccccc2)C2CCCC2)C1 (centres undefined) -6%
C[N+](C)(CCOc1ccccc1)Cc1cccs1 -0.706%
COc1ccccc1NC(=O)c1c(NC(=O)c2ccco2)sc2c1CCC(C(C)(C)C)C2 (centres undefined) 4.85%
CCSc1ncc(Cl)c(C(=O)Nc2c(C(=O)c3ccc(C)c(F)c3)oc3ccccc23)n1 3.7%
CCOCCCNC(=O)C(c1ccc(C)cc1)N(Cc1cccs1)C(=O)c1ccc(NC(C)=O)cc1 (centres undefined) -3.1%
CC(=O)c1cccc(NC(=O)c2c(N3CCCC3=O)c3cc(F)ccc3n2C)c1 -11.6%
Cc1nc2nc(SCC(=O)NCc3ccccc3Cl)nn2c(C)c1Cc1ccccc1 -5.8%
CCc1ccc(NC(=O)C(CC)n2c(=O)c(C(F)(F)F)nc3ccccc32)cc1 (centres undefined) -6.72%
COc1cc(Cl)c(C)cc1Nc1ncnc2c1nc1n2CCCC1 -11.3%
CCOC(=O)Cn1c(=O)c2c(nc3n2CCN3c2ccc(CC)cc2)n(C)c1=O -12.1%
CCc1nc(-c2cc(S(=O)(=O)N3CCN(c4ccccc4OC)CC3)ccc2OC)no1 -14.8%
COc1ccc(-c2cc(C(=O)Nc3c(C)nn(Cc4ccc(C)cc4)c3C)no2)cc1OC -6.02%
Cc1ccc(-c2nnc(Nc3ccc(O)cc3)c3ccccc23)cc1S(=O)(=O)N1CCOCC1 -14.5%
COc1ccc(Cl)cc1NC(=O)CN1C(=O)COc2ccc(S(=O)(=O)NC3CCCC3)cc21 -1.61%
COc1cccc(NS(=O)(=O)c2ccc(-c3cc(C)no3)s2)c1 -3.73%
Cc1ccc(Nc2nn3c(=O)c4cc5c(cc4nc3s2)OCO5)cc1Cl 2.22%
CCOC(=O)c1cc(-c2ccccc2)n(-c2cccc(C(=O)Nc3ccc(OCC)cc3)c2)c1C -22.9%
COc1cccc(Cn2c(=O)n(Cc3ccco3)c(=O)c3oc4ccccc4c32)c1 -1.83%
CC(=O)N1CCCc2cc(S(=O)(=O)N3CCC(C(=O)NCc4cccc(C)c4)CC3)ccc21 -4.96%
CN(C(=O)CSc1cn(CC(=O)N2CCOCC2)c2ccccc12)c1ccccc1 1.12%
CCCCN(CC)CCNC(=O)Cn1cc2c(n1)-c1c(oc(C(=O)N3CCCC3)c1C)CC2 -3.01%
CCCOc1cccc(C(=O)N(Cc2ccc(C)o2)C2CCS(=O)(=O)C2)c1 (centres undefined) -14%
COc1cc(NC(=O)CC2C(=O)N(c3cccc(C)c3)C(=O)N2Cc2ccc(F)cc2)cc(OC)c1 (centres undefined) -22.9%
CCOC(=O)c1cc2c(=O)n3ccccc3nc2n(CC(C)C)c1=NC(=O)c1c(-c2c(F)cccc2Cl)noc1C -5.39%
CCCN(C(=O)c1noc2c1COc1ccc(C)cc1-2)c1ccc(Cl)c(Cl)c1 -0.371%
CC(=O)Nc1ccc(NC(=O)CSc2nccn2C)cc1 -2.02%
